Measurements taken from EP4509523A1 (Deutsches Primatenzentrum GmbH (DPZ), dated 2025).

Tests used:
Test in all cases: flow cytometry on transfected Jurkat cells, anti-IgG-Fc detection (Fig. 3)
[1] = target: T1, human KIR2DL1 (human, UniProt P43626 22-348)
T1 construct: whole, on cells

[2] = target: T2, human KIR2DL3 (human, UniProt P43628 22-341)
T2 construct: whole, on cells

[3] = target: T3, human KIR3DS1 (human, UniProt Q14943 22-382)
T3 construct: whole, on cells; also called KIR3DS01
T3 sequence (Q14943 22-382): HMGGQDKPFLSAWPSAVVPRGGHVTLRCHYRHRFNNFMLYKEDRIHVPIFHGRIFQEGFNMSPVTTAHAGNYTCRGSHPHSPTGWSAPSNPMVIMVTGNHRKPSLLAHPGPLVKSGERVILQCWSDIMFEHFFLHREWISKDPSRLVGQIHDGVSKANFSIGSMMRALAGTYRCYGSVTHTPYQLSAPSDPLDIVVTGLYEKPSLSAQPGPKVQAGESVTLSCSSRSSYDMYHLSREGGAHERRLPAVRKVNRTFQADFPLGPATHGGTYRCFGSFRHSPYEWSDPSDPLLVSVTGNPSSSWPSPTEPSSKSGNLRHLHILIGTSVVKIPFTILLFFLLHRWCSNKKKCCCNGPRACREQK

T2 sequence (P43628 22-341): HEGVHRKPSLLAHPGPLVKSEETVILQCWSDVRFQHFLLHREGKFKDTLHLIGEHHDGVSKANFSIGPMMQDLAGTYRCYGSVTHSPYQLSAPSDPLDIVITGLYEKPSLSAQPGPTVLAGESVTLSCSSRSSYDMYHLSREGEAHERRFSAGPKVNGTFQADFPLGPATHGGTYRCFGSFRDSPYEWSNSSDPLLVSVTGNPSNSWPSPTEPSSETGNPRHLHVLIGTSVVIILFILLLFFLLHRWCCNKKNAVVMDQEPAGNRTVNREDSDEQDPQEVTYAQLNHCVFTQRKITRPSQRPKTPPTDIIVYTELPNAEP
T1 sequence (P43626 22-348): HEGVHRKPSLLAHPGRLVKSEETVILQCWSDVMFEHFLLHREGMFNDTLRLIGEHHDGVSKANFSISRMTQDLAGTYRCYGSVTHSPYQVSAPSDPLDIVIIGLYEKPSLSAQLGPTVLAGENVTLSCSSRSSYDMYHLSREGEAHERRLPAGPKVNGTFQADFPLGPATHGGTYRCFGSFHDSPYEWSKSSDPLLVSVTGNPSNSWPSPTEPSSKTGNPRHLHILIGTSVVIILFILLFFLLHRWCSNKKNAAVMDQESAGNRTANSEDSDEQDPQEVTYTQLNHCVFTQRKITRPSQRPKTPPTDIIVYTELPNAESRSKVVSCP

binding result [1]: no binding
binding result [2]: no binding
binding result [3]: no binding
B1: KIR3DX1rep-IgG1-Fc (Fc fusion)
chain: GAQDKFSLSAWPSPVVPLGGRVTLSCHSHLRFVIWTIFQTTGTRSHELHTGLSNNITISPVTPEHAGTYRCVGIYKHASKWSAESNSLKIIVTGLFTKPSISAHPSSLVHAGARVSLRCHSELAFDEFILYKEGHIQHSQQLDQGMEAGIHYVEAVFSMGPVTPAHAGAYRCCGCFSHSRYEWSAPSDPLDIVITGKYKKPSLSTQVDPMMRLGEKLTLFCSSEISFDQYHLFRHGVAHGQWLSGGQRHREAFQANFSVGRATPVPGGTYRCYGSFNDSPYEWSAPSDPLQLYTTGNTKSTPLSFTESTPESDTPRPQGQSSNLH[human IgG1 Fc omitted]
notes: also called KIR3DX1rep-Fc; KIR3DX1repaired-IgG1-Fc
